Over roughly 33,000 sequences, “E-score (-0.5 to 0.5)” has its median near -0.017; the highest 2% begin near 0.3. This is one part of the list.
Each sequence was assayed against T1, Sut1 (UniProt P53032) (assay: PBM E-score (8-mer binding enrichment) (E-score (-0.5 to 0.5)); higher = stronger / more preferred TF binding; most listed sequences are background and not binding sites). Conditions: protein concentration: 200 nM; construct: GST-full length.
T1 sequence: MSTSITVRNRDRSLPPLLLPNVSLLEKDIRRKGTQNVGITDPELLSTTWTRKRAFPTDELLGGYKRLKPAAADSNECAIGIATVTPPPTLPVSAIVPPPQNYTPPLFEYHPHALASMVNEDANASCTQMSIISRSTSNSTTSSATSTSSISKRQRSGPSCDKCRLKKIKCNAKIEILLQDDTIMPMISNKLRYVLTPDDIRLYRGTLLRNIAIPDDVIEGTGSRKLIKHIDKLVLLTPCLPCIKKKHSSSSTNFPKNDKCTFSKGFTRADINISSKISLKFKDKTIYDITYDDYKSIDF
Method in brief: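 For each ungapped eight-base word taken together with its reverse complement, the Universal PBM Analysis Suite assigned an E-score. Binding data came from GST-tagged yeast transcription factors, applied at about 100-200 nM, on universal all-10-mer Agilent arrays made double-stranded by primer extension. Fluorescent anti-GST marked bound protein, and scans were normalised with masliner.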

| Sequence | PBM E-score |
| --- | --- |
| AACAACCT | -0.0575 |
| GGACAATA | 0.159 |
| ATAGCGGA | 0.172 |
| CTAGCTTA | 0.115 |
| AGCGGAAC | -0.0608 |
| GACAGCGC | -0.0578 |
| CCTTGCCG | -0.124 |
| ACTCGAGG | -0.124 |
| AGAAAAAT | 0.28 |
| AGGTCTGA | -0.095 |
| AGCAGTGG | -0.175 |
| GACGGAAC | -0.0244 |
| TTATCCAA | 0.3 |
| AACGCCGA | 0.139 |
| CTGCGACC | -0.26 |
| GTTAGTGA | 0.0292 |
| AGAATTGA | 0.0242 |
| AAAGTCGG | 0.0971 |
| ACGTGTGC | -0.409 |
| AAGAGGCA | -0.0785 |
| GTTGTATA | 0.131 |
| AAGTAGCT | -0.0847 |
| AGAACAAG | 0.104 |
| AATGATCC | 0.0339 |
| AGTTAGAG | 0.0352 |

| Sequence | PBM E-score |
| --- | --- |
| CTGTTTCC | -0.0762 |
| CACGTGCC | -0.186 |
| CCAAGCAA | -0.15 |
| AAAAATGT | 0.202 |
| AGACTCTG | -0.137 |
| CCTGTAAC | -0.12 |
| GCCATAGC | -0.25 |
| AAATCATC | 0.188 |
| AGGAAATC | 0.0669 |
| CCACAAAA | 0.0574 |
| ACGTTGCG | 0.0202 |
| CCCAACAC | -0.157 |
| CACTATGA | -0.0253 |
| ACTATAAT | 0.224 |
| ACTTCGGC | 0.14 |
| ATCAAACG | 0.132 |
| GCGATCGA | 0.0863 |
| GCTAATTA | 0.148 |
| ATCCCGAT | 0.0315 |
| ATTGAAAA | 0.213 |
| ACCCTTCC | -0.0492 |
| CAGATTCA | -0.0309 |
| GTGGTAAA | 0.128 |
| GATTCTGC | -0.0953 |
| CCAACTAA | 0.22 |

| Sequence | PBM E-score |
| --- | --- |
| CCAGAATA | 0.105 |
| AAAAACTC | 0.211 |
| AACATCTA | 0.0446 |
| ACCGTGCA | -0.0643 |
| CCACTTCA | -0.0819 |
| CACGGTCC | -0.227 |
| ATTACTGC | 0.0981 |
| AGCTCCCA | -0.15 |
| GTAGAGAA | -0.0104 |
| ACGCCCAT | -0.0055 |
| CATCAGAC | -0.167 |
| CACTATTA | 0.0757 |
| CGGTTTAA | 0.0957 |
| CGTTAGGA | -0.0176 |
| GCAGAAAA | 0.119 |
| CCATGAGG | -0.24 |
| CGATATTA | 0.271 |
| ACCCATGG | -0.31 |
| CTTTAGCA | -0.158 |
| CGGAAGAC | 0.162 |
| AAGTTGGA | 0.0731 |
| ACATGTGG | -0.0327 |
| GCCTTAAA | 0.0657 |
| CGCGGCCC | 0.0122 |
| GAGCTGAC | 0.15 |

| Sequence | PBM E-score |
| --- | --- |
| CTTTCATC | -0.0675 |
| TCATACGA | 0.103 |
| AGCTTCGA | -0.0617 |
| AGGATTCG | 0.00593 |
| CATGAGTA | -0.0232 |
| ACTGTCTC | -0.00926 |
| TCTGGACA | -0.174 |
| ATTGTGCG | -0.185 |
| ACAGAGCG | -0.205 |
| ACTTAAGT | 0.0916 |
| CATTACCG | 0.0505 |
| CGATTAAC | -0.0902 |
| GAGGGGAC | -0.269 |
| ACACATCA | 0.033 |
| ACAGACCG | -0.129 |
| CCCGTCTA | -0.053 |
| ACATAACA | 0.221 |
| AGGTGACA | -0.0665 |
| AATGGCAG | -0.159 |
| AGTCACCA | -0.0604 |
| ATATTTGA | 0.177 |
| ATGCCTTA | -0.21 |
| AATCATGT | 0.00747 |
| GGTCCTCA | 0.082 |
| GCCCATGA | -0.222 |

| Sequence | PBM E-score |
| --- | --- |
| GCACGCCC | -0.0155 |
| GAGTTTGC | -0.00989 |
| CACTTAAG | 0.137 |
| CTAAGCTC | -0.0514 |
| ACGGCCCT | -0.262 |
| ATGGTGCG | -0.188 |
| CTCAACAG | -0.0499 |
| GCTAAATA | -0.0182 |
| CTATCTTA | 0.108 |
| CAAATGTA | 0.257 |
| CCGGGTGC | -0.0863 |
| CCGACCCG | -0.109 |
| GACGATTA | -0.0644 |
| GGAGTTAC | 0.367 |
| AATCACAC | 0.0234 |
| GAAGACGC | -0.078 |
| CACCCCGG | 0.0471 |
| AGGTTACT | 0.137 |
| CAGCGGAA | 0.0124 |
| CAATATCA | 0.188 |
| GTCAGAAC | -0.175 |
| CACAATCG | -0.17 |
| ACCCGGGA | -0.109 |
| GCGGAGTA | 0.458 |
| CCGCTAAC | 0.0198 |

| Sequence | PBM E-score |
| --- | --- |
| GAAACAGC | -0.117 |
| TAGGCGCA | -0.0677 |
| CCATGGCA | -0.095 |
| ACAGAACA | 0.118 |
| ACTCCGCA | 0.473 |
| CCTGCTAC | -0.0632 |
| AATGGGCC | -0.149 |
| ATCACAGC | 0.0636 |
| CCCATCAC | -0.217 |
| CGAGAAGC | 0.0567 |
| ACCGGTCG | -0.114 |
| CTGTCATA | 0.0449 |
| CCCTGATC | -0.347 |
| AGGAGGCG | -0.187 |
| GAGGCACA | -0.0648 |
| CGCGGTTC | -0.0131 |
| TAAGCGTA | -0.0359 |
| GCCCAGTA | -0.0398 |
| TACCCTCA | -0.132 |
| AGGGGCTC | -0.263 |
| CCAGCGCA | -0.12 |
| GTTACAAA | 0.197 |
| AAGGTACC | -0.104 |
| CCTCTTCC | -0.334 |
| ACTTGTAC | 0.0562 |

| Sequence | PBM E-score |
| --- | --- |
| ATGGTAGC | -0.0733 |
| GACGAACC | -0.0142 |
| CTTAGACC | 0.0409 |
| ACAGTGAG | -0.144 |
| ACCGGCAC | 0.0333 |
| GCTCACTA | -0.0683 |
| CCTTCCAC | -0.294 |
| AATTACCT | 0.144 |
| CTTAGCTC | -0.0237 |
| GGGCATTA | -0.168 |
| AAAATCTT | 0.156 |
| AGAGGGAG | -0.315 |
| ACGGGCTG | -0.223 |
| AGTTAACG | 0.0439 |
| GGCTAGCC | -0.376 |
| TGACCCCA | -0.151 |
| CAGTCTAA | 0.183 |
| TCGGTAGA | 0.205 |
| CAGGAAGG | -0.255 |
| CTTCCATA | 0.00613 |
| CAGGTAGA | -0.163 |
| AGATGATG | 0.0132 |
| ACCCCAGT | 0.013 |
| GTCGTTTA | 0.0102 |
| GGGGGGCA | -0.361 |

| Sequence | PBM E-score |
| --- | --- |
| GGCCGTTA | 0.137 |
| AAGTTCCG | 0.0622 |
| GTGCAGGA | -0.23 |
| AAAAATCG | 0.0928 |
| AAGCTCCT | -0.112 |
| AAACGGGA | 0.159 |
| ACTTCTTA | 0.108 |
| TACTGAGA | -0.055 |
| GCCCCGAA | 0.184 |
| CAGCTCTA | -0.0959 |
| CTATGATA | 0.117 |
| GGTTGGTA | 0.114 |
| GCATCCCA | -0.301 |
| AAAGCAGG | -0.00755 |
| TGCCGGCA | -0.0265 |
| CATGGGGG | -0.318 |
| CAGCGCGA | -0.245 |
| AGCGATCA | -0.184 |
| GGAGTAAC | 0.258 |
| GGTCTCTA | -0.0903 |
| AGCATAGC | -0.167 |
| CGCTACCG | -0.0888 |
| CATTGCGG | -0.192 |
| CTGTGTGA | -0.0279 |
| AACGACCT | -0.0485 |

| Sequence | PBM E-score |
| --- | --- |
| GCGTGTGA | -0.101 |
| TTCATGAA | 0.00239 |
| ACAACCTC | -0.202 |
| ACCCGTAG | -0.285 |
| CGCTTATC | -0.0345 |
| CAGGGGCG | -0.346 |
| ATCGCAAG | -0.161 |
| CCAGTAAC | 0.072 |
| AACGCCTC | -0.115 |
| CTAAAGTA | 0.0339 |
| GGTGTACA | -0.084 |
| CTATATAG | 0.0328 |
| AGCCTGCA | -0.0445 |
| ATTGCCGA | -0.0492 |
| AGAATGGA | 0.112 |
| CTTCCCCA | -0.271 |
| CCAATTTA | 0.226 |
| TGTACGAA | 0.0891 |
| GTTATATA | 0.286 |

— the supplement of paper PMC3334620
